The source of these data is the supplement of paper PMC6089552.

The structures appear in SMILES notation. Out of some 3,200 compounds screened, about 300 (9.4%) showed activity. Only a part is listed here, and it is no random draw.

The assay deals with A673/TR/shEF. In words: cell viability (LOESS-normalised, relative to median of negative controls) (log2 ratio); higher = more viable cells (less compound effect), active = hit call of the paper (over 3 MAD below the median). The following applies: treatment time: 72 h. A digest of the protocol: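 A673/TR/shEF Ewing sarcoma cells were plated at 1,500 per well in 384-well plates and cultured with or without doxycycline, added 24 h before compounds, to induce EWS-FLI1 shRNA knockdown. Library compounds at two or more concentrations, alongside DMSO controls, were applied for three days. Cell viability was measured by CellTiter-Glo luminescence on an Envision reader. Readings were LOESS-corrected per plate, divided by the median of negative controls and log2-transformed, and hits were wells lying at least three median absolute deviations from the median of all screened wells.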

Where [1] appears, read: 0.25 µM, library screen: screen1, EWS-FLI1 expression: high (no doxycycline).
The mark [2] stands for this setting: 0.25 µM, library screen: screen1, EWS-FLI1 expression: low (doxycycline-induced shRNA knockdown).
[3] abbreviates: 2.5 µM, library screen: screen1, EWS-FLI1 expression: high (no doxycycline).
Setting [4] is: 2.5 µM, library screen: screen1, EWS-FLI1 expression: low (doxycycline-induced shRNA knockdown).
The mark [5] stands for this setting: 0.25 µM, library screen: screen2, EWS-FLI1 expression: high (no doxycycline).
Where [6] appears, read: 0.25 µM, library screen: screen2, EWS-FLI1 expression: low (doxycycline-induced shRNA knockdown).
Where [7] appears, read: 2.5 µM, library screen: screen2, EWS-FLI1 expression: high (no doxycycline).
Setting [8] is: 2.5 µM, library screen: screen2, EWS-FLI1 expression: low (doxycycline-induced shRNA knockdown).
The mark [9] stands for this setting: 0.103 µM, library screen: screen3, EWS-FLI1 expression: high (no doxycycline).
The mark [10] stands for this setting: 0.103 µM, library screen: screen3, EWS-FLI1 expression: low (doxycycline-induced shRNA knockdown).
Where [11] appears, read: 0.308 µM, library screen: screen3, EWS-FLI1 expression: high (no doxycycline).
The mark [12] stands for this setting: 0.308 µM, library screen: screen3, EWS-FLI1 expression: low (doxycycline-induced shRNA knockdown).
Where [13] appears, read: 0.926 µM, library screen: screen3, EWS-FLI1 expression: high (no doxycycline).
The mark [14] stands for this setting: 0.926 µM, library screen: screen3, EWS-FLI1 expression: low (doxycycline-induced shRNA knockdown).
[15] abbreviates: 2.8 µM, library screen: screen3, EWS-FLI1 expression: high (no doxycycline).
Where [16] appears, read: 2.8 µM, library screen: screen3, EWS-FLI1 expression: low (doxycycline-induced shRNA knockdown).
Setting [17] is: 8.3 µM, library screen: screen3, EWS-FLI1 expression: high (no doxycycline).
Setting [18] is: 8.3 µM, library screen: screen3, EWS-FLI1 expression: low (doxycycline-induced shRNA knockdown).
[19] abbreviates: 25 µM, library screen: screen3, EWS-FLI1 expression: high (no doxycycline).
Setting [20] is: 25 µM, library screen: screen3, EWS-FLI1 expression: low (doxycycline-induced shRNA knockdown).

On to `COc1ccc2c(c1)OC1(O)COc3cc(OC)c(OC)cc3C1=C2` (stereo unspecified), for which the “cell viability (log2)” value was inactive: 0.0744 under setting [1], inactive: -0.083 under setting [2], inactive: 0.152 under setting [3] and inactive: 0.0705 under setting [4].

Consider `C=Cc1c(C)c2cc3[nH]c(cc4nc(cc5nc(cc1[nH]2)C(C)=C5CCC(=O)O)C(CCC(=O)O)=C4C)c(C)c3C=C`, for which the “cell viability (log2)” value runs as follows: under setting [1], inactive: 0.241; under setting [2], inactive: 0.181; under setting [5], inactive: 0.253; under setting [6], inactive: 0.0373; under setting [3], inactive: 0.249; under setting [4], inactive: 0.148. Moreover, the “cell viability (log2)” value is inactive: 0.218 under setting [7] and inactive: 0.0628 under setting [8].

For the compound `COC(=O)C1=C(C)NC(C)=C(C(=O)OCCN2CCN(C(c3ccccc3)c3ccccc3)CC2)C1c1cccc([N+](=O)[O-])c1` (stereo unspecified), the “cell viability (log2)” value was inactive: 0.0343 under setting [9]; inactive: 0.0779 under setting [10]; inactive: 0.0955 under setting [11]; inactive: 0.0663 under setting [12]; inactive: 0.0726 under setting [13]; inactive: 0.0664 under setting [14]. Also, the “cell viability (log2)” value under setting [15] was inactive: 0.0776; the “cell viability (log2)” value under setting [16] was inactive: 0.076; the “cell viability (log2)” value under setting [17] is inactive: 0.0995; the “cell viability (log2)” value under setting [18] was inactive: 0.0224; the “cell viability (log2)” value under setting [19] is inactive: 0.0177; the “cell viability (log2)” value under setting [20] was inactive: 0.00217.

Take `CN1CCc2cc(O)c(O)cc2C(c2ccccc2)C1` (stereo unspecified): the “cell viability (log2)” value is inactive: 0.175 under setting [5], inactive: 0.093 under setting [6], inactive: 0.236 under setting [7] and inactive: 0.101 under setting [8].

As for `CCCCCCc1ccc(O)cc1O.Nc1c2ccccc2nc2ccccc12`, the “cell viability (log2)” value is inactive: 0.0435 under setting [1], inactive: -0.00183 under setting [2], inactive: -0.0147 under setting [3] and inactive: -0.0672 under setting [4].

Turning to `CCCCOCCOC(=O)CCCOc1ccc(Cl)cc1Cl`, the “cell viability (log2)” value is inactive: 0.0256 under setting [1], inactive: 0.038 under setting [2], inactive: 0.0946 under setting [3] and inactive: 0.127 under setting [4].

For `O=C1[C@H](Cc2ccc(O)cc2)N2C(=O)CCN(C(=O)NCc3ccccc3)[C@H]2CN1Cc1cccc2ccccc12`, the “cell viability (log2)” value under setting [9] was inactive: -0.0101; the “cell viability (log2)” value under setting [10] is inactive: 0.068; the “cell viability (log2)” value under setting [11] was inactive: 0.0453; the “cell viability (log2)” value under setting [12] was inactive: 0.0327; the “cell viability (log2)” value under setting [13] was inactive: 0.0157; the “cell viability (log2)” value under setting [14] is inactive: 0.0736. The “cell viability (log2)” value is, setting by setting: under setting [15], inactive: 0.0365; under setting [16], inactive: 0.0441; under setting [17], inactive: -0.0756; under setting [18], inactive: -0.205; under setting [19], active: -1.07; under setting [20], active: -1.18.

`O=C(O)c1cccnc1Nc1cccc(C(F)(F)F)c1`: the “cell viability (log2)” value under setting [1] was inactive: 0.0115; the “cell viability (log2)” value under setting [2] was inactive: -0.00562; the “cell viability (log2)” value under setting [5] was inactive: 0.155; the “cell viability (log2)” value under setting [6] was inactive: 0.165; the “cell viability (log2)” value under setting [3] was inactive: 0.168; the “cell viability (log2)” value under setting [4] was inactive: 0.0617. In addition, the “cell viability (log2)” value runs as follows: under setting [7], inactive: 0.0841; under setting [8], inactive: 0.119.

As for `OC1C=CC(Br)C(O)C1O` (stereo unspecified), the “cell viability (log2)” value is inactive: 0.12 under setting [5], inactive: 0.141 under setting [6], inactive: 0.0654 under setting [7] and inactive: 0.0803 under setting [8].

Turning to `CC(=O)Oc1ccc2c(c1)CC[C@@H]1[C@@H]2CC[C@]2(C)[C@@H](O)CC[C@@H]12`, the “cell viability (log2)” value is inactive: 0.103 under setting [1], inactive: -0.00729 under setting [2], inactive: 0.0771 under setting [3] and inactive: 0.0723 under setting [4].

Consider `Cc1oncc1C(=O)Nc1ccc(C(F)(F)F)cc1`, for which the “cell viability (log2)” value (0.025 µM, library screen: screen2, EWS-FLI1 expression: high (no doxycycline)) was inactive: 0.158; the “cell viability (log2)” value (0.025 µM, library screen: screen2, EWS-FLI1 expression: low (doxycycline-induced shRNA knockdown)) was inactive: 0.127; the “cell viability (log2)” value under setting [9] is inactive: 0.0152; the “cell viability (log2)” value under setting [10] is inactive: 0.0531; the “cell viability (log2)” value under setting [1] is inactive: 0.137; the “cell viability (log2)” value under setting [2] was inactive: 0.0208. In addition, the “cell viability (log2)” value by setting is: under setting [5], inactive: 0.12; under setting [6], inactive: 0.0726; under setting [11], inactive: 0.00609; under setting [12], inactive: 0.148; under setting [13], inactive: 0.0713; under setting [14], inactive: 0.0421. Also, the “cell viability (log2)” value is, setting by setting: under setting [3], inactive: 0.106; under setting [4], inactive: 0.000838; under setting [7], inactive: 0.0518; under setting [8], inactive: 0.0106; under setting [15], inactive: 0.0408; under setting [16], inactive: 0.0338. The “cell viability (log2)” value is inactive: 0.03 under setting [17]; inactive: 0.0408 under setting [18]; inactive: 0.0146 (25 µM, library screen: screen2, EWS-FLI1 expression: high (no doxycycline)); inactive: 0.0233 (25 µM, library screen: screen2, EWS-FLI1 expression: low (doxycycline-induced shRNA knockdown)); inactive: -0.00948 under setting [19]; inactive: 0.0523 under setting [20].

For `COc1ccc(C(Cl)=C(c2ccc(OC)cc2)c2ccc(OC)cc2)cc1`, the “cell viability (log2)” value reads like this: under setting [1], inactive: 0.0809; under setting [2], inactive: 0.0758; under setting [3], inactive: 0.133; under setting [4], inactive: 0.183.

On to `CCOC(=O)[C@H](CCc1ccccc1)N[C@@H](C)C(=O)N1Cc2ccccc2C[C@H]1C(=O)O`, for which the “cell viability (log2)” value by setting is: under setting [1], inactive: 0.0721; under setting [2], inactive: -0.0102; under setting [3], inactive: 0.124; under setting [4], inactive: 0.056.

`CC(CCc1ccccc1)NCC(O)c1ccc(O)c(C(N)=O)c1` (stereo unspecified): the “cell viability (log2)” value under setting [1] was inactive: 0.117; the “cell viability (log2)” value under setting [2] is inactive: 0.115; the “cell viability (log2)” value under setting [5] was inactive: 0.116; the “cell viability (log2)” value under setting [6] is inactive: 0.0924; the “cell viability (log2)” value under setting [3] is inactive: 0.16; the “cell viability (log2)” value under setting [4] is inactive: 0.0628. The “cell viability (log2)” value was inactive: 0.126 under setting [7] and inactive: 0.159 under setting [8].

For `Cc1cc(O)c(C=O)c2c1C(=O)Oc1c(C)c(O)c3c(c1O2)C(O)OC3=O` (stereo unspecified), the “cell viability (log2)” value was inactive: 0.122 under setting [1], inactive: 0.106 under setting [2], inactive: 0.124 under setting [3] and inactive: 0.0298 under setting [4].

For the compound `CN1C(C)(C)CCCC1(C)C`, the “cell viability (log2)” value was inactive: 0.119 under setting [1]; inactive: 0.116 under setting [2]; inactive: 0.0924 under setting [5]; inactive: 0.101 under setting [6]; inactive: 0.0982 under setting [3]; inactive: 0.0107 under setting [4]. The “cell viability (log2)” value was inactive: 0.129 under setting [7] and inactive: 0.0765 under setting [8].
